Experimental data taken from PubChem BioAssay AID686979 (National Center for Advancing Translational Sciences (NCATS), 2013).
The whole screen tested about 420,000 compounds, of which about 50,000 (12%) were called active. The inconclusive results got no clear call from the source; some entries with a clear call stand among them for comparison. Calls follow the shape of the dose curve; as a rule, active = well fitted inhibition curve with a large enough effect; inconclusive = small, poorly fitted or top-dose-only effect; inactive = flat fitted curve, though single readings scatter. Potencies of inconclusive entries are left out as doubtful fits.

Test: qHTS for Inhibitors of human tyrosyl-DNA phosphodiesterase 1 (TDP1): qHTS in cells in presence of CPT; also: nearly all actives have a fitted effect of over 55% in size
Conditions: chicken DT40 Tdp1-/-;hTDP1 cells + 20 nM CPT, ATP luminescence, 48 h; activity change, negative = growth inhibition: at 46.2 µM (top of the series) unless noted
In short: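 Cell growth measured by CellTiter-Glo luminescence after a minimum 48 h, 37 C compound exposure with 20 nM CPT in Tdp1-knockout DT40 cells stably expressing hTDP1, seeded 400/well; qHTS titration format.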
% is scaled to controls: 0 for no effect and ±100 for the full control effect; potency is read from the fitted curve at half-maximal effect; tags tell the direction and shape of the fitted curve.

Row | Structure (SMILES) | Potency | activity change, negative = growth inhibition
1 | CSCCC1NC(=O)N(CC(=O)Nc2cccc3ccccc23)C1=O (stereo not given) | inactive | 
2 | COc1ccc(C(=O)C(OC(=O)c2ccc(C)c(NC(C)=O)c2)c2ccccc2)cc1 (stereo not given) |  | inconclusive: -30% [inhibitor]
3 | Cc1ccc(C)c(N2CCN(C(=O)c3cc4c(=O)n(Cc5ccccc5)ccc4nc3C)CC2)c1 | active: 16.4 µM | 
4 | CCN(CC)C(=O)c1cccc(NC(=O)c2ccccc2OCc2c(C)noc2C)c1 | inactive | 
5 | Cc1ccc(NCc2nnc(SCCN3CCCCC3)n2CC2CCCO2)cc1Cl (stereo not given) | inconclusive [inhibitor, single point] | 
6 | Cc1cc(=O)[nH]c(N/N=C/c2c(C)oc3ccccc23)n1 | active: 11.6 µM | 
7 | C=C1CCC(OC(C)=O)/C(C)=C/CC2[C@H]1CC2(C)C (stereo not given in full) | inactive | 
8 | Cc1ccc(-n2nc(C)c3c(C)c(CCC(=O)NCc4ccccc4Cl)c(C)nc32)cc1C | inactive | 
9 | COc1cc2c(cc1NC(=O)c1cccc(Br)c1)CCCC2 | inconclusive [inhibitor, single point] | 
10 | Cc1cccc(NS(=O)(=O)c2ccc3[nH]c4c(c3c2)CCCCCC4)c1 | active: 18.4 µM | 
11 | CCOc1cccc2c1N[C@@H](c1ccc(C(=O)O)cc1)[C@H]1CC=C[C@@H]21 | inconclusive [inhibitor, single point] | 
12 | COc1ccc(N2CCN(Cc3csc(C)c3-c3ccc(C)cc3)CC2)cc1 | inconclusive [inhibitor, single point] | 
13 | Cc1ccc(S(=O)(=O)N2C[C@H]3C(=O)C[C@@H](c4ccc(Cl)cc4)N(S(=O)(=O)c4ccccc4C)[C@H]3C[C@H]2c2ccc(Cl)cc2)cc1 | inactive | 
14 | CCOC(=O)c1sc2nc(C)nc(NCc3ccc(F)cc3)c2c1C | active: 25.9 µM | 
15 | CCOC(=O)C1(C)CCCN(C(=O)c2ccc3ccccc3c2)C1 (stereo not given) | inconclusive [inhibitor, single point] | 
16 | O=[N+]([O-])c1c(NCc2ccco2)ccc2nonc12 | inactive | 
17 | COc1ccc(NC(=O)C(Cc2ccccc2)NS(=O)(=O)c2ccc3c(c2)CCC(=O)N3)c(OC)c1 (stereo not given) | inactive | 
18 | CCN(CC)S(=O)(=O)c1cc(C(=O)Nc2ccccc2[N+](=O)[O-])ccc1Cl | inconclusive [inhibitor, single point] | 
19 | CCc1c(C)nc(N2CCN(c3ccc(F)cc3)CC2)[nH]c1=O | inconclusive [inhibitor, partial curve] | 
20 | CCc1ccc(-c2cn(C3CCCCC3)c(=S)[nH]2)cc1 | inconclusive [inhibitor, single point] | 
